Hit rate of the full screen: of about 220,000 compounds, about 5,700 (2.6%) were called active. The shares of active, inactive and inconclusive entries below differ from those in the screen. Calls follow the shape of the dose curve; as a rule, active = well fitted inhibition curve with a large enough effect; inconclusive = small, poorly fitted or top-dose-only effect; inactive = no such curve, though single readings can be large or run the other way. Potencies beside an inconclusive call are fits to weak or partial responses and may not hold up.
Each compound was assayed against Lysine-specific demethylase 5B (Homo sapiens) (UniProt Q9UGL1) (assay: Primary screen for KDM5B Histone Demethylases FDH-coupled qHTS). Conditions: FDH-coupled NADH fluorescence (FDH is formaldehyde dehydrogenase); activity change, negative = inhibition: at 57.7 µM (top of the series) unless noted.
Sequence of UniProt Q9UGL1 (Q9UGL1 whole entry, looked up): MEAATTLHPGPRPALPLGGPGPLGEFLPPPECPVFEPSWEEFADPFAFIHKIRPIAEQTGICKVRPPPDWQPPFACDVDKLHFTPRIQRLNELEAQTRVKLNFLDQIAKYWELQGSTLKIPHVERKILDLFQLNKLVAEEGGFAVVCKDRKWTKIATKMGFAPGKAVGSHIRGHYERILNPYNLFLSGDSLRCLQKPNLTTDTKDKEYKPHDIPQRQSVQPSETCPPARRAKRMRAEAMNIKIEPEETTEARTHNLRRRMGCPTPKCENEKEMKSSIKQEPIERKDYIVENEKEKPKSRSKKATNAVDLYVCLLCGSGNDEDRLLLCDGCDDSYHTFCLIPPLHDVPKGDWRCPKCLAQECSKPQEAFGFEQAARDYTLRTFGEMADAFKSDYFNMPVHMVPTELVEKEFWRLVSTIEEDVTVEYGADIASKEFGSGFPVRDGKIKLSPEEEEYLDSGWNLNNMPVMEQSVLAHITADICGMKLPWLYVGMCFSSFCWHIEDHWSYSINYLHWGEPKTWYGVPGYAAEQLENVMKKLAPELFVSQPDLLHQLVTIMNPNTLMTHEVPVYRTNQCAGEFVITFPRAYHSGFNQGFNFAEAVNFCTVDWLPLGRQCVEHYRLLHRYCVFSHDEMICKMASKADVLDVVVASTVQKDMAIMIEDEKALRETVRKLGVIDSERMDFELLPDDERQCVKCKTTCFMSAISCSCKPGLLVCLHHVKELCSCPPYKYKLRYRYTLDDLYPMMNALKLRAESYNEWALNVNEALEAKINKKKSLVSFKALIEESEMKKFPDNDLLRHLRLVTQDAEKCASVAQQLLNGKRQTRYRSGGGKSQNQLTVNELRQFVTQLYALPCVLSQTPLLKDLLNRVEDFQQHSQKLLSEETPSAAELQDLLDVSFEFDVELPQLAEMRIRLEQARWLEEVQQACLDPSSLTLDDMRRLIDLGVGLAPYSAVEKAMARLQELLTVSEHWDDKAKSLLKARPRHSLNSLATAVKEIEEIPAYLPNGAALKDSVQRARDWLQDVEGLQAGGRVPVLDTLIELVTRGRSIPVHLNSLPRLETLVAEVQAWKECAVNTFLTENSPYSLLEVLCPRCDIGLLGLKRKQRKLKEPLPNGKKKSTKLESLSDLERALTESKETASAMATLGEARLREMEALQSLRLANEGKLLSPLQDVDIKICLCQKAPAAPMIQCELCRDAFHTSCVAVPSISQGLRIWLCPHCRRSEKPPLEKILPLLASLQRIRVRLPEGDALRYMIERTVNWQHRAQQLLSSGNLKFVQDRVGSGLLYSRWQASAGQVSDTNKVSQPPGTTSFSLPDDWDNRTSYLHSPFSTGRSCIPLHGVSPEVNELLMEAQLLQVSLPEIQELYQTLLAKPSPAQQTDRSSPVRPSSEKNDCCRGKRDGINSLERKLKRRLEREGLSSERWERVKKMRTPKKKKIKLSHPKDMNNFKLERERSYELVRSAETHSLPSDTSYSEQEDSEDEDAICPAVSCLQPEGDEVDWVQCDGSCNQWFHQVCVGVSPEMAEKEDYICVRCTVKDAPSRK
Method in brief: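 Coupled FDH/NAD⁺ fluorescence readout. KDM5BΔAP 200 nM final; compound titration, 10 min RT preincubation; substrate mix 12.5 µM H3K4me3, 25 µM 2-OG, 50 µM Fe(II), 100 µM ascorbate, 0.25 mM NAD⁺, 0.25 U/mL FDH; ΔRFU over 30 min.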
With `COCCN1CCCCCC(O)c2cc(C(=O)N3CC=C(c4ccccc4)CC3)ccc21` (centres undefined) the Potency was inconclusive: 25.1 µM [inhibitor, single point]. In the case of `O=C(Nc1ccc(Cl)cc1)N1CCC(CN2CCCCCC2)CC1`, the Potency is reported as inconclusive: 28.2 µM [inhibitor, partial curve, poor fit]. `CC(=O)N1CC2(CCCN2CC2CC2)Cc2ccccc21` (centres undefined) was tested, and the Potency was inconclusive: 56.2 µM [inhibitor, partial curve, poor fit]. `CN1c2cc(C(=O)Nc3cccc(C#N)c3)ccc2C(=O)N2CCCCC21` (centres undefined) was tested, and the Potency was inconclusive: 20 µM [inhibitor, partial curve, poor fit]. In the case of `Cc1ccc(C(=O)c2oc3ccccc3c2NC(=O)c2cc(=O)c3cc(C)ccc3o2)cc1`, the activity change, negative = inhibition is reported as inconclusive: -37.3% [inhibitor]. In the case of `COc1nccnc1NC1CCN(C(=O)CCc2c(C)noc2C)CC1`, the Potency is reported as active: 31.6 µM. With `CC(=O)N1C[C@@H]2CCCN3CCC[C@@H]([C@H]23)[C@H]1CCCC(=O)NCc1ccccc1` the Potency was inconclusive: 15.8 µM [inhibitor, partial curve]. With `Cc1cccc(OCCSc2nc3cc(S(=O)(=O)N(C)C)ccc3o2)c1` the Potency was “inactive”. In the case of `ON=C1CCCCCCCCCCC1`, the Potency is reported as “inactive”. For `COc1ccc(NC(=O)C2(C)CCc3cnc(Nc4ccccc4)nc32)cn1` (centres undefined), the Potency was inconclusive: 56.2 µM [inhibitor, single point]. For `CCCCNc1nc(Oc2ccc(=O)n(-c3ccccc3)n2)nc(N(CC)CC)n1`, the Potency was inconclusive: 22.4 µM [inhibitor, partial curve, poor fit]. With `Cc1cc(NC(=O)CSc2nc3c([nH]c4ccccc43)c(=O)n2-c2ccccc2F)no1` the Potency was inconclusive: 25.1 µM [inhibitor, single point]. With `Cc1noc(C)c1S(=O)(=O)N1CCc2nc3cc(-c4ccccc4)[nH]n3c(=O)c2C1` the Potency was active: 28.2 µM. For `Cc1ccc(-c2ncc(C(=O)N3CCC[C@H](N)C3)c(=O)[nH]2)cc1`, the Potency was inconclusive: 15.8 µM [inhibitor, partial curve]. In the case of `NNc1ccccc1Br`, the Potency is reported as “inactive”. In the case of `CCNC(=O)[C@@H]1C[C@H](NC(C)=O)CN1C1CCN(c2ccc(C)cc2)CC1`, the Potency is reported as inconclusive: 14.1 µM [inhibitor, partial curve, poor fit]. For `CCN(CC(=O)Nc1cccc(OC)c1)C(=O)c1ccc(-c2ccccc2Cl)o1`, the Potency was inconclusive: 39.8 µM [inhibitor, single point]. `N#Cc1cccnc1N1CC[C@@H](N2CCC(O)CC2)[C@H](O)C1` was tested, and the Potency was active: 25.1 µM. For `O=C(c1cccs1)N1CCCn2cc(-c3ccccc3F)nc21`, the Potency was “inactive”. `Cc1ccc(NC(=O)C2=C(c3ccccc3)NC(=S)NC2c2ccc(C)cc2)cc1` (centres undefined) was tested, and the Potency was inconclusive: 35.5 µM [inhibitor, partial curve, poor fit]. In the case of `CC1(C)CC(NC(=O)Cn2nc3c(cc2=O)CCCC3)CCO1` (centres undefined), the Potency is reported as “inactive”. `O=[N+]([O-])c1ccc(-c2csc(Nc3cccc4ccccc34)n2)cc1` was tested, and the Potency was “inactive”. For `CCC(C)NC(=O)Cc1csc2nc(C)c(-c3cc(C)n(-c4ccc(C)cc4)n3)c(=O)n12` (centres undefined), the Potency was active: 28.2 µM. In the case of `N[n+]1cccc2ccccc21`, the Potency is reported as inconclusive: 39.8 µM [inhibitor, partial curve, poor fit]. In the case of `CCOC(=O)C1CCN(c2cc(C)nc3c(-c4ccccc4OC)c(C)nn23)CC1`, the Potency is reported as inconclusive: 7.94 µM [inhibitor, partial curve, poor fit]. `Cc1cc(=O)n(CCN2CCOCC2)c(N2CCCC2)n1` was tested, and the Potency was inconclusive: 22.4 µM [inhibitor, partial curve]. `CN(C)c1ccc(CN2CCOC[C@H]2c2ncc(-c3cccc(F)c3)[nH]2)cc1` was tested, and the Potency was inconclusive: 28.2 µM [inhibitor, partial curve]. For `CC(=O)NC(NC(=S)Nc1cccc(C)c1)C(Cl)(Cl)Cl` (centres undefined), the Potency was “inactive”. With `COc1ccc(-c2ccc3ncc(Nc4ccc(C(N)=O)cc4)n3n2)cc1OC` the Potency was “inactive”. For `Cc1cccc(OCC(=O)NCc2nnc3ccc(-c4ccccc4)nn23)c1`, the Potency was “inactive”. For `CC(Oc1ccc(Cl)cc1)C(=O)NC(C)c1ccccc1` (centres undefined), the Potency was “inactive”. For `CCOc1ccc(N(C(C)C(=O)NCCSc2ccc(Cl)cc2)S(C)(=O)=O)cc1` (centres undefined), the Potency was inconclusive: 1 µM [inhibitor, full curve, poor fit]. In the case of `O=C(Cn1ccn2nc(-c3ccc(F)cc3)c(CO)c2c1=O)NCc1ccc(Cl)cc1`, the Potency is reported as “inactive”. `Clc1ccc(C2Cn3nnc(-c4nc(-c5ccc6c(c5)OCO6)no4)c3CO2)cc1` (centres undefined) was tested, and the Potency was inconclusive: 25.1 µM [inhibitor, single point]. In the case of `CCOc1cccc(/C=C/C(=O)c2ccc(Br)cc2)c1OC`, the Potency is reported as “inactive”. `COc1ccc(Oc2c(C)oc3cc(OCC(=O)O)ccc3c2=O)cc1` was tested, and the Potency was inconclusive: 25.1 µM [inhibitor, single point]. For `Cc1cc(NC(=O)COc2ccc3c(C(C)C)cc(=O)oc3c2)no1`, the Potency was inconclusive: 22.4 µM [inhibitor, partial curve, poor fit]. With `CCc1nc(-c2c3n(c(=O)n(CC(=O)Nc4cccc(OC)c4)c2=O)CCCCC3)no1` the Potency was “inactive”. With `COc1cc(NC(=O)c2ccc3c(Cl)c4c(nc3c2)CCC4)cc(OC)c1OC` the activity change, negative = inhibition was inconclusive: -40.7% [inhibitor]. With `O=C1[C@H]2CN(Cc3ccc(F)cc3F)C[C@H]2C(=O)N1CCN1CCc2ccccc2C1` the Potency was inconclusive: 20 µM [inhibitor, partial curve, poor fit]. In the case of `Cc1ccc(NC(=O)C(C)Nc2ccc3oc(C)nc3c2)c(C)c1` (centres undefined), the Potency is reported as inconclusive: 31.6 µM [inhibitor, single point]. With `CN1CC(=O)N(C2CCCNCC2)Cc2c(NCc3ccc4c(c3)OCO4)ncnc21` (centres undefined) the Potency was inconclusive: 39.8 µM [inhibitor, partial curve, poor fit]. For `COc1ccc(C(=O)c2coc3c2C(=O)C(=O)c2ccccc2-3)cc1`, the Potency was inconclusive: 1.78 µM [inhibitor, full curve, poor fit]. In the case of `COc1cccc(CC(=O)N2CCCN(c3cc(-c4ccccc4)[nH]n3)CC2)c1`, the Potency is reported as inconclusive: 35.5 µM [inhibitor, single point].
Also: nearly all actives have a fitted effect of over 70% in size.
For activity change, negative = inhibition in this document: 0% is about no effect.
Potency is read from the fitted curve at half-maximal effect; tags tell the direction and shape of the fitted curve.
